Measured values reported in the RNAGym collection of RNA variant scans (doi:10.1101/gad.245936.114).
This sample is rich in variants without activity.

B1: tRNA (parent)
chain: CUCUCGGUAGCCAAGUUGGUUUAAGGCGCAAGACUUUAAUUUAUCACUACGAAAUCUUGAGAUCGGGCGUUCGACUCGCCCCCGGGAGAUUUUUUCCUCGAGCAA

Variants of: B1
Assay: nonsense suppression (GFP-seq) (ratio to wild type); higher = more function; SUP4oc tRNA, yeast GFP reporter sort-seq
In short: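 Yeast were grown in raffinose/galactose medium with 80 mg/L adenine, each strain bearing a genome-integrated ochre-suppressor tRNA variant from a ~3% random-mutation library, a galactose-driven GFP ochre reporter, and RFP. After sorting into GFP/RFP bins, every bin was sequenced on an Illumina platform at phred ≥30. The GFPSEQ value, a measure of nonsense suppression, is the weighted bin median GFP/RFP relative to the unmutated parent tRNA, using each variant's estimated cell share per bin as the weight. Only variants with ≥100 reads and ≥30 cells were included.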
Work on C34U A60G yielded a nonsense suppression of 0.0428.
For A33U C34U G61A C64A, the nonsense suppression was at most 0.026.
A33C A62C C79G gave a nonsense suppression of at most 0.026.
With U35A U55A the nonsense suppression was at most 0.026.
Work on U35A U55C yielded a nonsense suppression of at most 0.026.
For U35A G65U, the nonsense suppression was at most 0.026.
For C34G G59U G88U, the nonsense suppression was at most 0.026.
A54C C56U U58A G66C showed a nonsense suppression of at most 0.026.
With U35C C83G the nonsense suppression was at most 0.026.
A33G U63G C83U showed a nonsense suppression of at most 0.026.
Variant U35G U70A C79A has a nonsense suppression of at most 0.026.
C34A U76G showed a nonsense suppression of at most 0.026.
Work on A33G C34U U71A yielded a nonsense suppression of at most 0.026.
For A33C U55C C56U G66U C79G, the nonsense suppression was at most 0.026.
In the case of A33C U55A G67C, the nonsense suppression is reported as at most 0.026.
Work on U35C A62U C68U yielded a nonsense suppression of at most 0.026.
With U35G C72G the nonsense suppression was at most 0.026.
Variant U35A C77A has a nonsense suppression of at most 0.026.
Variant A33C U55G C77U has a nonsense suppression of at most 0.026.
For C34G G65C C83G, the nonsense suppression was at most 0.026.
For A33G G86C, the nonsense suppression was 0.0374.
U35A G73C showed a nonsense suppression of at most 0.026.
With U35G G59U C64G the nonsense suppression was at most 0.026.
Work on A33U G88A yielded a nonsense suppression of at most 0.026.
For A54C A62G G69A, the nonsense suppression was at most 0.026.
C34U U63C G84A G88U showed a nonsense suppression of at most 0.026.
Work on G32U U63A C79A yielded a nonsense suppression of at most 0.026.
Work on C34G A60U A89C yielded a nonsense suppression of at most 0.026.
A33G A62G G88C gave a nonsense suppression of at most 0.026.
A33G U63C C64G showed a nonsense suppression of at most 0.026.
For A33C U57C, the nonsense suppression was at most 0.026.
U35G G73C A89G gave a nonsense suppression of at most 0.026.
Variant A33U G61A G73U has a nonsense suppression of at most 0.026.
With U35G U55C C68G U71G the nonsense suppression was at most 0.026.
For A33G G61U C83G, the nonsense suppression was at most 0.026.
Variant C34U U35G has a nonsense suppression of at most 0.026.
For A33U C72U C82U, the nonsense suppression was at most 0.026.
C34A C64G gave a nonsense suppression of at most 0.026.
Work on C34A U55G A62U yielded a nonsense suppression of at most 0.026.
Work on A33G A74C G85A yielded a nonsense suppression of at most 0.026.
For A33C G84A, the nonsense suppression was at most 0.026.
In the case of A33C G67A U71G, the nonsense suppression is reported as at most 0.026.
C34G U70C showed a nonsense suppression of at most 0.026.
With C34G C72U C79G the nonsense suppression was at most 0.026.
U35C C56U A62U showed a nonsense suppression of at most 0.026.
For C34U G69C, the nonsense suppression was at most 0.026.
For A33G U55G G69C G78C, the nonsense suppression was at most 0.026.
Variant A33G U70A has a nonsense suppression of at most 0.026.
C34A C83G gave a nonsense suppression of at most 0.026.
For C34A C64G G85C, the nonsense suppression was at most 0.026.
In the case of C34G G86A, the nonsense suppression is reported as at most 0.026.
For C34G G86U, the nonsense suppression was at most 0.026.
With A33U C80A the nonsense suppression was at most 0.026.
G32U U55G A62C showed a nonsense suppression of at most 0.026.
U35A U55G G61C C68A showed a nonsense suppression of at most 0.026.
For A33G U55G G65C G73A G85C A87C, the nonsense suppression was at most 0.026.
G32U U58G C64G gave a nonsense suppression of at most 0.026.
Variant C34A A60G C75G C80A has a nonsense suppression of at most 0.026.
C34G U55A G59A A62U G67C gave a nonsense suppression of at most 0.026.
With U35C G84C the nonsense suppression was at most 0.026.
Work on U35A A62G yielded a nonsense suppression of at most 0.026.
G32U G84C showed a nonsense suppression of at most 0.026.
A33C U70C gave a nonsense suppression of at most 0.026.
C34G U58G U76A showed a nonsense suppression of at most 0.026.
For A33C U71G G86A, the nonsense suppression was at most 0.026.
In the case of C34U A87C, the nonsense suppression is reported as at most 0.026.
C34A G61C showed a nonsense suppression of at most 0.026.
A54C A87G gave a nonsense suppression of 0.59.
Variant C34G U57C C68A has a nonsense suppression of at most 0.026.
U35A C81G gave a nonsense suppression of at most 0.026.
C34G U71G showed a nonsense suppression of at most 0.026.
Variant C34G U71A has a nonsense suppression of at most 0.026.
With U35G U71A U76G G86U the nonsense suppression was at most 0.026.
With U35A A89U the nonsense suppression was at most 0.026.
In the case of U35A A89G, the nonsense suppression is reported as at most 0.026.
With C34U G67C the nonsense suppression was at most 0.026.
In the case of C34U G67U, the nonsense suppression is reported as at most 0.026.
Work on C34U G67A yielded a nonsense suppression of at most 0.026.
Work on C34A C79G G88A yielded a nonsense suppression of at most 0.026.
With C34A G73U the nonsense suppression was at most 0.026.
U35A U71A A87C gave a nonsense suppression of at most 0.026.
In the case of C34A A54C G73C U76G G86C, the nonsense suppression is reported as at most 0.026.
A54C A74C gave a nonsense suppression of at most 0.026.
A33C G61U G66U gave a nonsense suppression of at most 0.026.
Variant A33G U57G U63C has a nonsense suppression of at most 0.026.
Work on A33U C77A yielded a nonsense suppression of at most 0.026.
Variant C34U A54C C56G G73A G88C has a nonsense suppression of at most 0.026.
Variant A33C C64G C77U has a nonsense suppression of at most 0.026.
For C34G C56G, the nonsense suppression was at most 0.026.
A33U G69C G73A gave a nonsense suppression of at most 0.026.
Variant U35G U70G has a nonsense suppression of at most 0.026.
For U35C U71G, the nonsense suppression was at most 0.026.
C34U C56A C82G showed a nonsense suppression of at most 0.026.
U35C A89C showed a nonsense suppression of at most 0.026.
For C34G G78C, the nonsense suppression was at most 0.026.
Variant C34G G67C has a nonsense suppression of at most 0.026.
G32U U55G showed a nonsense suppression of at most 0.026.
For G32U U55C, the nonsense suppression was at most 0.026.
Variant C34A U55C U76A has a nonsense suppression of at most 0.026.
U35A C56G G69A gave a nonsense suppression of at most 0.026.
Work on C34U G85U G86U yielded a nonsense suppression of at most 0.026.
With G32U U70G U71A G84A the nonsense suppression was at most 0.026.
Work on C34G U35G G86U yielded a nonsense suppression of at most 0.026.
Work on C34U C81A G88C yielded a nonsense suppression of at most 0.026.
C34G U76C showed a nonsense suppression of at most 0.026.
G32U U35G G88A showed a nonsense suppression of at most 0.026.
A33C C68A showed a nonsense suppression of at most 0.026.
In the case of A33C C68G, the nonsense suppression is reported as at most 0.026.
With U35C A62G the nonsense suppression was at most 0.026.
With U35G G59A G61U the nonsense suppression was at most 0.026.
Work on C34A G84U yielded a nonsense suppression of at most 0.026.
A33G U63C gave a nonsense suppression of 0.11.
U35G U70A U76G showed a nonsense suppression of at most 0.026.
With C34U C56U G88A the nonsense suppression was at most 0.026.
In the case of C34U G88C, the nonsense suppression is reported as at most 0.026.
In the case of C34U G88A, the nonsense suppression is reported as at most 0.026.
With C34G C80A A89G the nonsense suppression was at most 0.026.
Work on A33G U35A U58A yielded a nonsense suppression of at most 0.026.
C34G C81U gave a nonsense suppression of at most 0.026.
Work on C34G C81G yielded a nonsense suppression of at most 0.026.
Work on U35C U57C yielded a nonsense suppression of at most 0.026.
In the case of C34A C75G, the nonsense suppression is reported as at most 0.026.
U35C C82U gave a nonsense suppression of at most 0.026.
Work on U35C C82A yielded a nonsense suppression of at most 0.026.
With G32U G69C the nonsense suppression was at most 0.026.
Work on U35G G85U yielded a nonsense suppression of at most 0.026.
With A33C G73A the nonsense suppression was at most 0.026.
Work on A33C G73U yielded a nonsense suppression of at most 0.026.
Variant A33G A74G C81A has a nonsense suppression of at most 0.026.
For A33U U35C U55C, the nonsense suppression was at most 0.026.
For A54C C79G, the nonsense suppression was at most 0.026.
Work on C34G G84U G88U yielded a nonsense suppression of at most 0.026.
C34U A54C G86C showed a nonsense suppression of at most 0.026.
A33G U55A G78U showed a nonsense suppression of at most 0.026.
In the case of U35C G59C, the nonsense suppression is reported as at most 0.026.
In the case of U35C U57A G61C, the nonsense suppression is reported as at most 0.026.
Variant C34A U55A G61C has a nonsense suppression of at most 0.026.
With A33C U55A C77A the nonsense suppression was at most 0.026.
With C34U U70A C77G the nonsense suppression was at most 0.026.
U35A U63A C64A U70G showed a nonsense suppression of at most 0.026.
With A33U U71A the nonsense suppression was at most 0.026.
In the case of U35A U63C G69U G85C, the nonsense suppression is reported as at most 0.026.
U35A G85C gave a nonsense suppression of at most 0.026.
For A54C C64U, the nonsense suppression was 0.0402.
For C34A U58G G86A, the nonsense suppression was at most 0.026.
A33G G61C C75G gave a nonsense suppression of at most 0.026.
U35G A54G U57A G84C gave a nonsense suppression of at most 0.026.
In the case of A33U G59A, the nonsense suppression is reported as at most 0.026.
Work on A33U A62U G66C yielded a nonsense suppression of at most 0.026.
Variant A33G A87G has a nonsense suppression of 0.0348.
With C34U G59A the nonsense suppression was at most 0.026.
Work on C34A U55C A89C yielded a nonsense suppression of at most 0.026.
In the case of A33U A60U G66C, the nonsense suppression is reported as at most 0.026.
With U35G U55C G61C G73U the nonsense suppression was at most 0.026.
For C34G U70G A87C, the nonsense suppression was at most 0.026.
With U35C G67A the nonsense suppression was at most 0.026.
A33G G66C G85U showed a nonsense suppression of at most 0.026.
In the case of A33G C72A, the nonsense suppression is reported as at most 0.026.
Variant C34U A54G G61A C68A has a nonsense suppression of at most 0.026.
C34U G65A U70A showed a nonsense suppression of at most 0.026.
In the case of A33G A74U C81A, the nonsense suppression is reported as at most 0.026.
In the case of A33G G69C, the nonsense suppression is reported as at most 0.026.
A33U G86C showed a nonsense suppression of at most 0.026.
A33G G66C G88A showed a nonsense suppression of at most 0.026.
With U35G G59U A60G the nonsense suppression was at most 0.026.
A33U U57G gave a nonsense suppression of at most 0.026.
A33G U58G G67A C81A showed a nonsense suppression of at most 0.026.
